Measured values from PMC5314374.
Numbering of substitutions follows the chain as printed. Names and notes keep the numbering of the source. No constants are given. Whether binding was seen depends on the method and setting. For part of these data: Binding seen in cells or lysates may run through a third protein. Some results given as binding are weak or reduced against the parent protein; the word gives no strength. Tags and fused reporters may be left off the sequences shown. Blank lines part the entries; values can stand above or below the binder they belong to.

Key:
[1] = biological target: T1, ΔN-Gpd1-GFP-PTS1 (S. cerevisiae) (UniProt Q00055); test: co-IP; GFP-TRAP beads on lysates of S. cerevisiae gpd1 cells (Fig. 6A: pex13/gpd1 cells) co-expressing the two tagged proteins; cells grown on NaCl-containing medium (1 M in the legends, 0.8 M in the methods); lysis buffer 20 mM HEPES, 100 mM KAc, 5 mM MgAc pH 7.5; beads 1 h at 4 °C; immunoblot
T1 sequence: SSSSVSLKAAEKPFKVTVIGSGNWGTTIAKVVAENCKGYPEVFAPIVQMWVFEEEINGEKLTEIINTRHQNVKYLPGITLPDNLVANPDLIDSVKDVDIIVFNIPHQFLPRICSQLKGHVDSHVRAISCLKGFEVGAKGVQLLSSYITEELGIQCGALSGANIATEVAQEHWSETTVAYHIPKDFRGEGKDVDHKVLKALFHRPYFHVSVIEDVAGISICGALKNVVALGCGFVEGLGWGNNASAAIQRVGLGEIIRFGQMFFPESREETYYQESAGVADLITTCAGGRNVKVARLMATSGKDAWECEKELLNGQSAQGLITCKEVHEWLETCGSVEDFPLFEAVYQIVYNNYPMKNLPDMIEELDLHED

[2] = biological target: T2, Gpd1R270E-GFP (S. cerevisiae) (UniProt Q00055); test: as above
T2 sequence: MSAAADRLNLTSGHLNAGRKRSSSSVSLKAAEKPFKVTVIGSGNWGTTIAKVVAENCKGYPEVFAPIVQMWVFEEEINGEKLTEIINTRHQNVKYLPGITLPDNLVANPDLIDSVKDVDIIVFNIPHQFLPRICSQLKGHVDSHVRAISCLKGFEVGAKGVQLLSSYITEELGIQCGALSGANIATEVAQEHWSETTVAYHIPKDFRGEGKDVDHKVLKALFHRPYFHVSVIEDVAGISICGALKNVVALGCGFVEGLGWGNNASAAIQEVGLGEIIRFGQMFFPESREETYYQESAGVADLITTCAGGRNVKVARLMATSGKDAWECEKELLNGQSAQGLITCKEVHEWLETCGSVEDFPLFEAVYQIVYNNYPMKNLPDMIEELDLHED

[3] = biological target: T3, Glycerol-3-phosphate dehydrogenase 1 (Gpd1), tagged with GFP or HA at the carboxy-terminus (S. cerevisiae) (UniProt Q00055); test: as above
T3 sequence: T2 sequence with E270R

[4] = biological target: T4, Gpd1-GFP-PTS1 (S. cerevisiae) (UniProt Q00055); test: as above
T4 sequence: T2 sequence with E270R

[5] = biological target: T5, Pnc1 two-hybrid fusion (Gal4 transactivation domain and Gal4 DNA binding domain) (S. cerevisiae) (UniProt P53184); test: two-hybrid; Gal4 DNA-binding-domain fusions (bait) in PJ69-4α mated with Gal4 activation-domain fusions in PJ69-4a; growth on SD His- medium with 5 mM 3AT, for Pex21 interactions also lacking adenine; 30 °C
T5 sequence: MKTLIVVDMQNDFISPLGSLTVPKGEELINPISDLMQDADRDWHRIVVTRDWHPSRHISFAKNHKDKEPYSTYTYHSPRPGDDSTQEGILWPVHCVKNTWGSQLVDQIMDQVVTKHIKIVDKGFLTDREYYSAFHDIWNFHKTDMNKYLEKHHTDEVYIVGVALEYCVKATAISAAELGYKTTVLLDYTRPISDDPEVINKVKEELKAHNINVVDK

[6] = biological target: T6, Pex7 two-hybrid fusion (Gal4 transactivation domain and Gal4 DNA binding domain) (S. cerevisiae) (UniProt P39108); test: as above
T6 sequence: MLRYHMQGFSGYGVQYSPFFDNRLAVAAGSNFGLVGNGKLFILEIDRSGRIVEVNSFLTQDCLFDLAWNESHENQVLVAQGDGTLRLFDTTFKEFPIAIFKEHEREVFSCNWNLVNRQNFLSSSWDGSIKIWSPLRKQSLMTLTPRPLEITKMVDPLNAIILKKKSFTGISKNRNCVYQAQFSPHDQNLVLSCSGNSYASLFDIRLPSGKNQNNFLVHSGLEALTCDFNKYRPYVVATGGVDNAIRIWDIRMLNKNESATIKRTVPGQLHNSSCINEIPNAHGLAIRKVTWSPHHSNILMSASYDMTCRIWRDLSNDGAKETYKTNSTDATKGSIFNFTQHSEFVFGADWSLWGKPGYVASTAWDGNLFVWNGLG

[7] = biological target: T7, Pex21 fused to the Gal4 DNA binding domain (S. cerevisiae) (UniProt P50091); test: as above
T7 sequence: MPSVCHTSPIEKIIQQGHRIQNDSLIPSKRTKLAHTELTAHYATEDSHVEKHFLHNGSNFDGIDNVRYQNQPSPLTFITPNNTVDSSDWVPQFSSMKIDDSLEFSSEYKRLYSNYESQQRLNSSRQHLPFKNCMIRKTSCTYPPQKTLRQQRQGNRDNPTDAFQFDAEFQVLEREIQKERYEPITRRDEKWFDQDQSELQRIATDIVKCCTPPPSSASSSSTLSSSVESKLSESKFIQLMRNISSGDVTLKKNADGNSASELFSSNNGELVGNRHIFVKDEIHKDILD

[8] = biological target: Gpd1E195R/R270E, tagged with GFP or HA (S. cerevisiae) (UniProt Q00055); test: co-IP; GFP-TRAP beads on lysates of S. cerevisiae gpd1 cells (Fig. 6A: pex13/gpd1 cells) co-expressing the two tagged proteins; cells grown on NaCl-containing medium (1 M in the legends, 0.8 M in the methods); lysis buffer 20 mM HEPES, 100 mM KAc, 5 mM MgAc pH 7.5; beads 1 h at 4 °C; immunoblot

binding [1]: binds
binding [2]: no binding
binding [3]: binds
binding [4]: binds
B1: Pyrazinamidase/Nictonamidase I (Pnc1), TAP-tagged in the genome (protein, UniProt P53184 1-216)
chain: T5 sequence

binding [5]: binds
binding [6]: no binding
binding [7]: no binding
B2: Pnc1 two-hybrid fusion (Gal4 transactivation domain and Gal4 DNA binding domain) (protein, UniProt P53184 1-216)
chain: T5 sequence

binding [3]: binds
B3: Glycerol-3-phosphate dehydrogenase 1 (Gpd1), tagged with GFP or HA at the carboxy-terminus (protein, UniProt Q00055 1-391)
chain: T2 sequence with E270R

binding [5]: binds
binding [6]: binds
binding [7]: binds
B4: Gpd1 fused to the Gal4 transactivation domain (protein, UniProt Q00055 1-391)
chain: T2 sequence with E270R

binding [8]: binds
binding [3]: no binding
B5: Gpd1E195R/R270E, tagged with GFP or HA (protein, UniProt Q00055 1-391)
chain: T2 sequence with E195R

binding [3]: no binding
B6: Gpd1R270E-HA (protein, UniProt Q00055 1-391)
chain: T2 sequence

binding [5]: no binding
B7: Gpd1R270E fused to the Gal4 transactivation domain (protein, UniProt Q00055 1-391)
chain: T2 sequence
